Results reported in article PMC12040169 (PLOS Biology, 2025).
This is one part of the list.

The compounds below were run on T1, C. trachomatis L2/434/Bu expressing GFP (CTL2-GFP). Conditions: total inclusion area; 28.5 h, 10 µM; inhibitor.
T1 construct: L2/434/Bu GFP intracellular growth in HeLa cells
Set-up: species or system HeLa; C. trachomatis total inclusion area by high-content imaging, normalised to DMSO
Method in brief: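 Following bulk GFP and resorufin fluorescence reads, infected cells were fixed, Hoechst-stained and imaged on a high-content platform. Inclusion total area and number per well served as growth proxies; nuclei counts indicated host viability. MICs were derived as for the fluorescence assay.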

| Compound | % of control remaining |
| --- | --- |
| CCn1cc(CN2CCC(c3cc(Cc4cccc(OC)c4)cc(C)n3)CC2)c(C)n1 [CBK285671] | 87.569 |
| CC(C)(C)OC(=O)NNC(=S)Nc1ccc(S(N)(=O)=O)cc1 [CBK267107] | 122.887 |
| CCOC(=O)c1ccc(-n2c(CCC(=O)O)ccc2-c2ccc(F)cc2)cc1O [CBK266010] | 132.557 |
| COc1nccnc1-c1cc2ccccc2s1 [CBK106781] | 116.658 |
| CN1C[C@@H](NC(=O)Nc2ccccc2)C[C@H]1c1nc(-c2cnccn2)no1 [CBK288851] | 116.534 |
| O=C(Nc1ccc2[nH]ccc2c1)c1c(F)cccc1F [CBK144711] | 105.722 |
| CS(=O)(=O)c1ccc(-c2ccc3c(n2)CCN(C2CCN(C(=O)OCc4ccccc4)CC2)C3)cc1 [CBK169530] | 69.6718 |
| c1coc(-c2cc(NC3CCCCC3)ncn2)c1 [CBK090901] | 89.1361 |
| COc1cncc(-c2cccc(NCC(c3cccnc3)N(C)C)n2)c1 (stereo not drawn) [CBK037741] | 122.202 |
| Cc1cc(N(C)C)cc(C2CCCN(C(=O)c3cccc(F)c3)C2)n1 (stereo not drawn) [CBK282003] | 106.811 |
| COC1=CC2CCNC(CCCCC3NCCc4cc(OC)c(OC)cc43)C2C=C1OC (stereo not drawn) [CBK013354] | 63.4182 |
| COc1ccc(CCC(=O)Nc2ncccc2OCCCC#N)cc1 [CBK304957] | 54.4014 |
| Cc1ccc(C(=O)COC(=O)c2cc(O)nc3ccccc23)cc1[N+](=O)[O-] [CBK264085] | 101.559 |
| CCN(CC)C(=O)C1CCN(S(=O)(=O)c2ccc(C)cc2)CC1 [CBK157834] | 100.295 |
| CCOC(=O)C1CCCN(C(=O)Cn2ccc3sccc3c2=O)C1 (stereo not drawn) [CBK304099] | 105.245 |
| Cn1ccc(C(=O)NCc2cccnc2OCC(F)(F)F)cc1=O [CBK305574] | 41.1318 |
| Cc1cc(N2C(=O)c3oc4ccccc4c(=O)c3C2c2ccncc2)no1 (stereo not drawn) [CBK287780] | 54.5121 |
| O=C(Cc1c[nH]c2ccccc12)N1CCC2(CCCN(C(=O)c3cscn3)C2)C1 (stereo not drawn) [CBK131590] | 91.4299 |
| O=C(O)CC(Cc1ccc(Cl)cc1)C(=O)Nc1ccccc1I (stereo not drawn) [CBK262021] | 78.0724 |
| CCn1cc(C(=O)O)c(=O)c2cc(F)c(N(C)CCc3ccc(OC)c(OC)c3)cc21 [CBK263070] | 78.2715 |
| OC[C@H]1CCN(Cc2cc(Cl)ccc2OCCCn2ccnc2)C[C@H]1O [CBK306581] | 66.5622 |

| Compound | % of control remaining |
| --- | --- |
| Cc1ncccc1COC(=O)Nc1cccnc1 [CBK138237] | 123.434 |
| CC(C)CN1C(=S)N(Cc2ccc(-c3ccccn3)cc2)[C@H]2[C@H]3OC(=O)[C@H](C[C@H]3O)[C@H]21 [CBK288938] | 81.961 |
| Cc1nc(CN2CCCC(NCc3cccc4ccccc34)C2)no1 (stereo not drawn) [CBK304068] | 76.5927 |
| CC1CCC(C(N)=O)CN1C(=O)c1ccc(Oc2cccc(Br)c2)nc1 (stereo not drawn) [CBK306005] | 20.4845 |
| COCC(=O)Nc1nc(OC)cnc1/C=C\c1ccccc1 [CBK145360] | 92.0579 |
| COc1ccccc1NC(=O)COc1cccc(Cl)c1Cl [CBK266029] | 131.309 |
| Clc1cccc(-c2cccc(Nc3cccnc3)n2)c1Cl [CBK037800] | 77.121 |
| O=C(NC1CC1)[C@H]1CN(Cc2ccccc2)C[C@@H]1C(=O)c1ccccc1 [CBK285264] | 77.1177 |
| O=S1(=O)C=C(SCCN2CCCCC2)c2ccccc21 [CBK265328] | 88.9304 |
| CC(C)N(CC(N)=O)Cc1nc(-c2cccc(C(F)(F)F)c2)no1 [CBK306287] | 48.4106 |
| COc1cc(C=CC(=O)O)ccc1OCc1cn2cc(Cl)ccc2n1 [CBK296722] | 80.5262 |
| Cc1c(-c2cncn2CC(=O)NC(C)(C)C)[nH]c2ccccc12 [CBK281911] | 93.1473 |
| COc1nccnc1OC1CCN(Cc2ccc(C(F)(F)F)cc2)CC1 [CBK084243] | 99.2644 |
| CC(C)OC(=O)N1CCC(N(C)Cc2ccc(-c3ccc(S(C)(=O)=O)cc3)cn2)CC1 [CBK165581T] | 58.1425 |
| COC(=O)c1ccc(NC(=O)CSc2nnc(-c3ccncc3)s2)cc1 [CBK269239] | 63.1016 |
| CC(=O)C(C)Oc1ccccc1-n1cccc1 (stereo not drawn) [CBK020334] | 75.3268 |
| O=c1[nH]nc(-c2cccs2)n1-c1ccncc1 [CBK283868] | 96.2136 |
| CC(=O)Nc1cccc(-n2nnnc2SCC2CCCCO2)c1 (stereo not drawn) [CBK305746] | 111.026 |
| OC(COc1ccccc1)Cn1ncnn1 (stereo not drawn) [CBK026083] | 45.0873 |
| O=C(COC(=O)c1cc(S(=O)(=O)N2CCCCC2)ccc1Cl)c1ccccc1 [CBK261657] | 88.374 |
| CN(C)CCCNC(=O)COc1ccccc1 [CBK262189] | 104.355 |

| Compound | % of control remaining |
| --- | --- |
| CCn1cc(C(=O)N2CCC(C(=O)O)CC2)c(=O)c2cc3c(cc21)OCO3 [CBK286713] | 85.6079 |
| CN(C)CCN(C)S(=O)(=O)c1ccc(C(C)(C)C)cc1 [CBK059035T] | 91.0088 |
| Fc1cccc(Cl)c1CNc1ccc(CNc2ncn[nH]2)cc1 [CBK267245] | 105.427 |
| CCSc1nc(N)cc(O)n1 [CBK086474] | 39.5775 |
| COc1cccc(N2C(=O)/C(=C/c3ccc(O)c(O)c3)SC2=S)c1 [CBK263096] | 64.5442 |
| Cc1cc(C(=O)N2CCC(c3nn(C)c4ncccc34)CC2)cs1 [CBK284987] | 86.5898 |
| OCc1ccc(-c2cncc(-c3ccc(O)cc3)n2)cc1 [CBK123792] | 101.166 |
| O=C(O)c1ccc2[nH]c3c(c2c1)CCCC3 [CBK001252] | 98.6454 |
| CCCOc1ccc(CCNc2ncnc(N)n2)cc1 [CBK262744] | 78.7574 |
| CCCCN(C(C)=O)c1c(CC)nc2ccc(C(=O)NCc3ccccc3OC)cn12 [CBK145761] | 94.9937 |
| COc1ccc(NC(=O)CC2NC3CCCCC3NC2=O)cc1 (stereo not drawn) [CBK266488] | 102.757 |
| CCCNC(=O)c1ccc(C)c(NC(=O)N[C@@H](CO)c2ccccc2)c1 [CBK306609] | 98.4445 |
| CCOC(=O)C1CCN(S(=O)(=O)c2ccc(OC)c(C)c2C)CC1 [CBK268955] | 110.767 |
| Cc1cc(-c2nn3c(-c4ccccc4)nnc3s2)c2ccccc2n1 [CBK267187] | 118.291 |
| CCc1c(C)nc2ccccc2c1SCCOC(=O)Nc1ccc(OC)cc1 [CBK155554T] | 92.3916 |
| O=C1c2cccc3cccc(c23)C(=O)N1CCN1CCN(S(=O)(=O)c2ccccc2[N+](=O)[O-])CC1 [CBK262530] | 84.7056 |
| COc1ccc(CN2C(=S)N(c3ccc(Cl)cc3)[C@H]3[C@@H]2[C@H]2OC(=O)[C@@H]3C[C@H]2O)cc1 [CBK288935] | 113.628 |
| c1ccc2c(c1)NC(c1ccncc1)n1nnnc1-2 (stereo not drawn) [CBK288171] | 87.7209 |
| Cc1sc2nc(C(C)N3CCN(Cc4ccco4)CC3)[nH]c(=O)c2c1C (stereo not drawn) [CBK306066] | 36.2645 |
| C(=C\c1nccnc1OC(c1ccccc1)c1ccccc1)/c1ccccc1 [CBK106878] | 108.843 |
| O=C1N=C(NC2CCCCCC2)SC1CC(=O)N1CCCC1 (stereo not drawn) [CBK063342] | 92.7976 |

| Compound | % of control remaining |
| --- | --- |
| O=C(O)CCC(=O)Nc1ccccc1C(=O)Nc1ccccc1 [CBK058571] | 89.2905 |
| Cc1ccnc(NCC2CCN(c3ccc4nnnn4n3)C2)c1 (stereo not drawn) [CBK306348] | 19.9977 |
| CSCCC(=O)Nc1ccc2ncccc2c1 [CBK159818] | 91.0392 |
| Cc1cccc(C)c1NC(=O)CN1CCCN(c2nccc(OCC3COc4ccccc4O3)n2)CC1 (stereo not drawn) [CBK083974] | 122.031 |
| C=CCn1c(-c2sc(NC(=O)c3cc4ccccc4s3)nc2C)n[nH]c1=S [CBK295303] | 95.8474 |
| Cc1ccccc1CN1CC[C@H]2[C@@H](C1)[C@H](c1ccsc1)CN2C(=O)c1ccccc1 [CBK285618] | 94.5586 |
| COC(=O)CC[C@H]1CNC(=O)[C@@H]2[C@@H](CCN2S(C)(=O)=O)N1C [CBK289019] | 103.349 |
| Cn1cc(CNCC2CCN(c3ccccc3)C2)c(-c2ccncc2)n1 (stereo not drawn) [CBK306317] | 5.127 |
| O=C1COc2ccc(S(=O)(=O)NCCOc3ccccc3)cc2N1 [CBK268480] | 88.0319 |
| COc1ccc2c(-n3cncn3)ccnc2c1 [CBK025957] | 131.093 |
| CCN(CC)C(=O)c1ccccc1NS(=O)(=O)c1cc(Br)c(Cl)s1 [CBK045424] | 74.4056 |
| CN(C)c1ccc(CC(=O)N2CCCc3ccccc32)cc1 [CBK200347] | 124.905 |
| Cc1ccc(-c2ncc(OC3CCN(C)CC3)nc2N)c(C)c1 [CBK145139] | 90.0466 |
| CCCc1[nH]nc(O)c1-c1ccc(OC)cc1 [CBK075135] | 103.13 |
| O=C(CCn1c(-c2ccncc2)cc2cccnc21)N1CCCC1 [CBK282151] | 95.0276 |
| Cc1c(N2C(=O)/C(=C3\C(=O)Nc4ccc([N+](=O)[O-])cc43)SC2=S)c(=O)n(-c2ccccc2)n1C [CBK263071] | 81.8348 |
| NC1=NC(=O)C2(COC(c3cccnc3)OC2)S1 (stereo not drawn) [CBK019981] | 81.4432 |
| O=C(Nc1ccccc1C(=O)N1CCCC1)c1cc(=O)[nH]c2ccccc12 [CBK295664] | 124.876 |
